Reference: article PMC9260856
These are yes or no findings as the source states them, for the method shown. Binding seen in cells or lysates may run through a third protein. Some entries that bind do so weakly or less than the wild type. Where a sequence is shown, tags or fusion partners need not be part of it.

The chains behind the UniProt entries cited, without tags or fusion partners.
UniProt Q93009: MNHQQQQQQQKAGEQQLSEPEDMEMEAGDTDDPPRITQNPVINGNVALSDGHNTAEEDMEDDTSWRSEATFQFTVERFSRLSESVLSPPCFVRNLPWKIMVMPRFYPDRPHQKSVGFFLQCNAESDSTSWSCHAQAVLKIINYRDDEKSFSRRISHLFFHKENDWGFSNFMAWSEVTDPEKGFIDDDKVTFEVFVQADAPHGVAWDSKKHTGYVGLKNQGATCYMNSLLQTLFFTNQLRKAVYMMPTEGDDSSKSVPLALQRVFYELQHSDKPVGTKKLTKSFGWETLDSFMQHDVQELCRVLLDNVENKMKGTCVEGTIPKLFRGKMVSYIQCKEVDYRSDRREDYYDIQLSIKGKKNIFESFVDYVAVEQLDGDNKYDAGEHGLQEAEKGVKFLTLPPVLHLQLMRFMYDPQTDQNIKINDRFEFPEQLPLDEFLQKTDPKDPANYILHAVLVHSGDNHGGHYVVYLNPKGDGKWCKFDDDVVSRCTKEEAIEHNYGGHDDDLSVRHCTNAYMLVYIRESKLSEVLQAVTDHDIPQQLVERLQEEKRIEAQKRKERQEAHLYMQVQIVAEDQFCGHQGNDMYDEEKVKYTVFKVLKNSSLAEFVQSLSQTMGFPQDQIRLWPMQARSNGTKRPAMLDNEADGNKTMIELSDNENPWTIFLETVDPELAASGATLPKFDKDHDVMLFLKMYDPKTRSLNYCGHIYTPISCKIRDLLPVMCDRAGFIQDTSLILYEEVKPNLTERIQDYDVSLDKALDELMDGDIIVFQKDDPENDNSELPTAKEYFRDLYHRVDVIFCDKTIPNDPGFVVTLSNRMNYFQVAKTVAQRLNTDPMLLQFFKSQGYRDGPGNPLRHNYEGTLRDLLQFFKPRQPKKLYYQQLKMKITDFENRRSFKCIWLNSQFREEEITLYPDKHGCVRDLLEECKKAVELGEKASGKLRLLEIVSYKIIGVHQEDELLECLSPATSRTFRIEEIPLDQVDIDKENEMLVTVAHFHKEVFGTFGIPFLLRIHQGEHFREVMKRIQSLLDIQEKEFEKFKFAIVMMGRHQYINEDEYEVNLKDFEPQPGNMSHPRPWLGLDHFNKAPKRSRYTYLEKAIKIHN

Columns and labels:
[1] = molecular target: T1, StrepII-FLAG-tagged FBXO38 lacking the C-terminus (FBXO38^Δ1091-1188) (human) (UniProt Q6PIJ6); test: co-IP; SF-tagged bait affinity-purified on Strep-Tactin Sepharose from whole-cell lysates of transfected HEK293T cells (150 mM NaCl, 50 mM Tris pH 7.5, 0.4% Triton X-100, Benzonase), desthiobiotin elution, immunoblot; MLN4924 before collecting where indicated
T1 sequence: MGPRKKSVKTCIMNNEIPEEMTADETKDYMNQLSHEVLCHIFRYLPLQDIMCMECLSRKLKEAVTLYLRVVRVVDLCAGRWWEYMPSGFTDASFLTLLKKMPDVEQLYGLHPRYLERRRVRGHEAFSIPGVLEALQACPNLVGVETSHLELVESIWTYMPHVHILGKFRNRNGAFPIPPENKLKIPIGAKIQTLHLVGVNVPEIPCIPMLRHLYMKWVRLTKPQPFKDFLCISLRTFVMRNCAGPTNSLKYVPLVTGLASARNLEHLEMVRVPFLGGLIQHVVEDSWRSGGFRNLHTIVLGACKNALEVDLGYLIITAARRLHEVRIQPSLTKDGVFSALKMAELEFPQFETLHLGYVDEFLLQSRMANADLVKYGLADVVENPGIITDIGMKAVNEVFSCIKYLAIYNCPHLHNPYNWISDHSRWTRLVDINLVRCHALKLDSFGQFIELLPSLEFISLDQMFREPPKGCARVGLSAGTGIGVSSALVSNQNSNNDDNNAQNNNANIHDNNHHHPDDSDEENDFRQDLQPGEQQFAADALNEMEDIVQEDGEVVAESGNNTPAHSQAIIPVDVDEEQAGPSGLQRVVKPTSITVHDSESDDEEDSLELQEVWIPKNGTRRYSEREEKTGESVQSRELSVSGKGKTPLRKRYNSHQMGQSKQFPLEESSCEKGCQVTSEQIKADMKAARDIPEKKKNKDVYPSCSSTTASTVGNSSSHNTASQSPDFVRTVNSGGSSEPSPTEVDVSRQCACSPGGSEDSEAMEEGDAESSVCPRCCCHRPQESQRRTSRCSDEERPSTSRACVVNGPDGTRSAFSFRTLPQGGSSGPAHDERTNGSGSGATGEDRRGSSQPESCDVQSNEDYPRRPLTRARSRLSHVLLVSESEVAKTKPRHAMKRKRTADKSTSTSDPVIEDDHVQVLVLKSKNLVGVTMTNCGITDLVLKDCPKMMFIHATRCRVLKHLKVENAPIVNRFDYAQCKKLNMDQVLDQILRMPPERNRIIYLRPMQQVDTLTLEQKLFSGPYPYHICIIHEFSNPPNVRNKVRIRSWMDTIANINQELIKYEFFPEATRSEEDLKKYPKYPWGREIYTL

[2] = molecular target: T2, StrepII-FLAG-tagged wild-type FBXO38 (SF-FBXO38 WT), transfected in HEK293T cells (human) (UniProt Q6PIJ6); test: as above
T2 sequence: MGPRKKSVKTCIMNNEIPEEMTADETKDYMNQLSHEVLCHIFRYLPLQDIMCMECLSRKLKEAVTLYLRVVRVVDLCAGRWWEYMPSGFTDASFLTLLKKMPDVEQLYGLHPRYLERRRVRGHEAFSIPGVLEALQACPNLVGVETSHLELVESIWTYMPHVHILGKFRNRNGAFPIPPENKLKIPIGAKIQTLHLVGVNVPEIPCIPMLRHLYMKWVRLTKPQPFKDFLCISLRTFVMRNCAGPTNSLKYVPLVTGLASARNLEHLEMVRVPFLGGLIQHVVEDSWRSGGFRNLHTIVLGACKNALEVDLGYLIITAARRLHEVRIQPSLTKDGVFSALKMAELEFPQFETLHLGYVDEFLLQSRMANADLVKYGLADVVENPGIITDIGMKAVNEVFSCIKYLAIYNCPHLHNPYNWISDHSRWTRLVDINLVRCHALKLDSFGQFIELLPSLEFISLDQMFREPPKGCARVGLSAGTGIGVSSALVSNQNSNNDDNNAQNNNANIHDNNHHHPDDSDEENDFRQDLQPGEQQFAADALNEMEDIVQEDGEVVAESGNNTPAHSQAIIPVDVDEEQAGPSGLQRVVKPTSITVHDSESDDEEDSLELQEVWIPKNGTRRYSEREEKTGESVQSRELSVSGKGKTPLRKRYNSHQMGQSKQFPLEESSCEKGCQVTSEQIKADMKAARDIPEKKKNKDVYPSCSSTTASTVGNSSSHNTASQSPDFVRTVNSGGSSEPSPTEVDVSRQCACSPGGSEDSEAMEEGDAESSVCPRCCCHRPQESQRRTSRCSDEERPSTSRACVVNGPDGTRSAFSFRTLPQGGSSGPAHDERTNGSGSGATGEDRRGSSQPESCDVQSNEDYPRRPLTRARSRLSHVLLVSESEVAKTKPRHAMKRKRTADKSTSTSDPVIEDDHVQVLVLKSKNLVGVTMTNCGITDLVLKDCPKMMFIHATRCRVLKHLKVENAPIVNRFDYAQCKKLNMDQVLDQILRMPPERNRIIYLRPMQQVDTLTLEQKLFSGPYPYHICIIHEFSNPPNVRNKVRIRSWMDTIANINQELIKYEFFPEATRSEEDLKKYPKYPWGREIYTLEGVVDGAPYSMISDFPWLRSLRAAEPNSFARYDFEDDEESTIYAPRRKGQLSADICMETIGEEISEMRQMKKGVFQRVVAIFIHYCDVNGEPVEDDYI

[3] = molecular target: T3, eGFP-tagged CENP-B (eGFP-CENP-B), stably expressed in HeLa cells (UniProt P07199); test: co-IP; eGFP-CENP-B immunoprecipitated with GFP-Trap magnetic beads from the soluble protein fraction of HeLa cells, with or without MLN4924 for 6 h; parental cells as control
T3 sequence: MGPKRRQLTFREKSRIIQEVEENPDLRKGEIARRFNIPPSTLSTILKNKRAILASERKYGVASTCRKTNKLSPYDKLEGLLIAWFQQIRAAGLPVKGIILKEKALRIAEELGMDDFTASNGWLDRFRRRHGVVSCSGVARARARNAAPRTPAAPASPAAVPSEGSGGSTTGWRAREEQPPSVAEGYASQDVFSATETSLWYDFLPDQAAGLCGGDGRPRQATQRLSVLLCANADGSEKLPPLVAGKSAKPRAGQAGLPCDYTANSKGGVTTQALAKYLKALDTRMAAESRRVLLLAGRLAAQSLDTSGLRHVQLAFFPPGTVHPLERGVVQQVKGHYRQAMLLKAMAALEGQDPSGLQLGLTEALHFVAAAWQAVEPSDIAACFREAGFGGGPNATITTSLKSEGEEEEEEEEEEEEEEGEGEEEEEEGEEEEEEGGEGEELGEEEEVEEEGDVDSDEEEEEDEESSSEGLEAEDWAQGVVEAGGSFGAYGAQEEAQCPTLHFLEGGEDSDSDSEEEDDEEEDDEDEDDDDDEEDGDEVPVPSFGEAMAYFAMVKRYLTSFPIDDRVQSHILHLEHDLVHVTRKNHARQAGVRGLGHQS

[4] = molecular target: T4, StrepII-FLAG-tagged ZXDA (SF-ZXDA), inducibly expressed in HeLa cells (human) (UniProt P98168); test: co-IP; SF-ZXDA and mutants, doxycycline-induced (24 h) in HeLa cells, affinity-purified on Strep-Tactin resin from whole-cell lysates, immunoblot
T4 sequence: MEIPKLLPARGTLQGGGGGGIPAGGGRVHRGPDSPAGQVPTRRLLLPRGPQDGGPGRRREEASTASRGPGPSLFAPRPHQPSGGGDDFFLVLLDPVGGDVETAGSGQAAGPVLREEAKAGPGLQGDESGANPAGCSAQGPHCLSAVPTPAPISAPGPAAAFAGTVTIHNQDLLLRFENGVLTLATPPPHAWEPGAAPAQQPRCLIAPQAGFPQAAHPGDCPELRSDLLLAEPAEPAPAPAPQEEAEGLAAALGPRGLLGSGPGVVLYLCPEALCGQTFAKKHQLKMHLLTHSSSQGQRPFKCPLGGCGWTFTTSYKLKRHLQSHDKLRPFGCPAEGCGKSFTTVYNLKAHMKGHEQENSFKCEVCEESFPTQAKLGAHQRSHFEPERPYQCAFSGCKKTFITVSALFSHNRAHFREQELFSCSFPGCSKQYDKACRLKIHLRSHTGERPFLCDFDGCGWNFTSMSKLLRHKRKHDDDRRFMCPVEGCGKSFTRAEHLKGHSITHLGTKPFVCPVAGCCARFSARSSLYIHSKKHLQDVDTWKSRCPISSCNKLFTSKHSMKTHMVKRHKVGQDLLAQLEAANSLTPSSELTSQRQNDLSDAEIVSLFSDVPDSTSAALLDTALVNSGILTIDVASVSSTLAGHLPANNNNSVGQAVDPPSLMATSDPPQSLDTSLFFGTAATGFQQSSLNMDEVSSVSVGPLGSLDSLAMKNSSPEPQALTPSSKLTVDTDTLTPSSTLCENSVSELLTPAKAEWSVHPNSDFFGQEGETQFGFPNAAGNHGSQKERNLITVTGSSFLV

Molecule: USP7 deubiquitinase, endogenous in HEK293T cells (from UniProt Q93009 1-1102) (enzyme)
- binding [1]: binds
- binding [2]: binds

B1: FBXO38, endogenous in HeLa cells (protein, UniProt Q6PIJ6 1-1188)
chain: T2 sequence
- binding [3]: no binding
- binding [4]: binds
